Measured values reported in patent US20250145646A1, “MACROCYCLIC COMPOUNDS AND DIAGNOSTIC USES THEREOF” (JANSSEN BIOTECH, INC., priority 2021, published 2025).

Columns and labels:
[1] = DTPA challenge of the 134Ce drug product (iTLC); assay type: physicochemical
Description: Aliquot of the drug product solution ^134Ce-TOPA-PSMB1154 (25 μL) was incubated with 10 mM DTPA, pH=6 (50 μL) at room temperature for 30 min. The mixture (2 μL) was spotted on an iTLC strip and the TLC was developed with a 10 mM EDTA solution (pH˜6).
The drug product solution ^134Ce-TOPA-PSMB1154 was kept at 2-8° C. for approx. 24 hours.
Aliquot of the drug product solution ^134Ce-TOPA-B23B62 (25 μL) was incubated with 10 mM DTPA, pH=6 (50 μL) at room temperature for 30 min. The mixture (2 μL) was spotted on an iTLC strip and the TLC was developed with a 10 mM EDTA solution (pH˜6).
The drug product solution was kept at 2-8° C. for approx. 24 hours.

[2] = HPLC analysis of the 134Ce drug product at t=0 h and t=24 h; assay type: physicochemical
Description: HPLC system: Agilent/Lablogic Flow RAM (FR-1A). HPLC method: column: AdvanceBio SEC 300A, 2.7 μm, 7.8×300 mm; mobile phase: Phosphate Buffer, pH 6.8; flow rate: 1 mL/min; column temperature 25° C.; injection volume 20 μL.
The drug product solution was kept at 2-8° C. for approx. 24 hours. After it was equilibrated to room temperature, 100 μL of the drug product solution was analyzed by HPLC.

[3] = biological target: antigen (prostate-specific membrane antigen, PSMA) (Homo sapiens, UniProt Q04609); experiment: HPLC IRF assay of the drug product; assay type: binding; details: antigen solution 1.03 mg/mL, room temperature 20 min
Description: 55 μL of the drug product solution was mixed with 40 μL antigen solution (1.03 mg/mL). The mixed solution was left at room temperature for 20 min.

[4] = Stability of 134Ce-TOPA-1154 in formulation buffer (iTLC); assay type: physicochemical; details: Formulation Buffer @ 4° C.
Description: Human, Mouse and Cyno serum was removed from a refrigerator at −20° C. and allowed to thaw to room temperature for 2 h. The serum was filtered through 0.2 μm filter before it was used for stability testing. Formulation buffer (25 mM NaOAc+0.04% PS-20 at pH5.5) was also sterilized by filtering through 0.2 μm filter before it was used for the stability test.
To an aliquot of the drug product solution ^134Ce-TOPA-1154 (0.1 mL, ˜145 uCi) was added 1.35 mL of the filtered formulation buffer. The diluted solution of ^134Ce-TOPA-1154 (0.1 mCi/mL) was used to prepare the following four solutions: • 1. The diluted solution of ^134Ce-TOPA-1154 (0.1 mCi/mL, 0.1 mL)+0.1 mL of the filtered formulation buffer. The mixed solution was kept in a refrigerator at 4° C. • 2. The diluted solution of ^134Ce-TOPA-1154 (0.1 mCi/mL, 0.1 mL)+0.1 mL of the filtered human serum. The mixed solution was kept at 37° C. • 3. The diluted solution of ^134Ce-TOPA-1154 (0.1 mCi/mL, 0.1 mL)+0.1 mL of the filtered mouse serum. The mixed solution was kept at 37° C. • 4. The diluted solution of ^134Ce-TOPA-1154 (0.1 mCi/mL, 0.1 mL)+0.1 mL of the filtered cyno serum. The mixed solution was kept at 37° C.
iTLC without DTPA challenge: At time points of t=0 h, 24 h and 96h, 5-10 μL each of the above four solutions (1, 2, 3, and 4) were spotted on iTLC strips respectively. Each TLC was developed using 10 mM EDTA. Each TLC was scanned on a Lablogic Scan-RAM Radio TLC scanner at >1h after its development.
iTLC with DTPA challenge: At time points of t=0 h, 24 h and 96h, 30 uL each of the above four solutions (1, 2, 3, and 4) was mixed with 10 μL of 10 mM DTPA solution (pH 6.5) respectively. After the solutions were incubated at room temperature for 30 min, 5-10 uL each of the solutions was spotted on iTLC strips respectively. Each TLC was developed using 10 mM EDTA. Each TLC was scanned on a Lablogic Scan-RAM Radio TLC scanner at >1 h after its development.
The radioactivity at the TLC origin is the ^134Ce-TOPA-1154 and the radioactivity at the solvent front is the free or loosely bound Ce-134.

Sequence of antigen (prostate-specific membrane antigen, PSMA) (Q04609 whole entry): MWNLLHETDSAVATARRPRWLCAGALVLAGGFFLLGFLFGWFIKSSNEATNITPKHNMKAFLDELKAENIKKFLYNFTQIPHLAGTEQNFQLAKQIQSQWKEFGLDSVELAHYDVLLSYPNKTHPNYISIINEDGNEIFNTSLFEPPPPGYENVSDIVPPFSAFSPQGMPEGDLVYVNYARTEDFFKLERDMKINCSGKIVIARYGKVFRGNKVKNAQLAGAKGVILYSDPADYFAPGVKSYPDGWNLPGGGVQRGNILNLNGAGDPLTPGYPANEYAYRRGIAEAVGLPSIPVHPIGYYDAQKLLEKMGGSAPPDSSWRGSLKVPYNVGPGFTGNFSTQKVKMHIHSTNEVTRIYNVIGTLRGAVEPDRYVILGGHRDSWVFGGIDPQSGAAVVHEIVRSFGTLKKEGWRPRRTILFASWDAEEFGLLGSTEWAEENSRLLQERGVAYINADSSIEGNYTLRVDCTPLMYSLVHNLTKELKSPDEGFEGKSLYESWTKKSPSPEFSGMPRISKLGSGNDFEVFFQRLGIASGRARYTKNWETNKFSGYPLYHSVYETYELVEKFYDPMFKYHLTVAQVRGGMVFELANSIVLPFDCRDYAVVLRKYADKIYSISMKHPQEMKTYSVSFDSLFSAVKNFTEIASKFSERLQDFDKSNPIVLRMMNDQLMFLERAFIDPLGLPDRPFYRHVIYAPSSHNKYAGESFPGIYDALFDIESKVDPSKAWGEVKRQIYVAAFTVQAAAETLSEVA

B1: ^134Ce-TOPA-PSMB1154 (conjugate)
heavy: EVQLVESGGGEVQPGRSLRLTCAVSGFTLSRYGMHWVRQAPGKGLEWAALISYDGSNRYYADSVKGRFTISRDNSKNTVFLQMNSLRAEDTAVYYCARERESSGWFEGYFDYWGQGTTVTVSS[left out - human IgG1 constant region]
light: QLVLTQPPSVSVAPGQTARITCGGNNIGSKSVHWYQQKPGQAPVLVVYDNSDRPSGIPERFSGSNSGNTATLTISRVEVGDEADYYCQVWDSSSDHVVFGGGTKLTVLGQPKAAPSVTLFPPSSEELQANKATLVCLISDFYPGAVTVAWKADSSPVKAGVETTTPSKQSNNKYAASSYLSLTPEQWKSHRSYSCQVTHEGSTVEKTVAPTECS
With B1 as the molecule, how does the “bound Ce-134 after DTPA challenge” value ([1]; drug product after purification, 10 mM DTPA pH=6, room temperature 30 min) read?
The value was 99.9%.

What about the “bound Ce-134 after DTPA challenge” value ([1]; drug product kept at 2-8° C. for approx. 24 hours) of the same molecule?
The value was 99.4%.

What about the “chemical purity by UV trace at 280 nm (HPLC)” value ([2]; t=0 h) of the same molecule?
Its value is 99.8%.

What about the “radiochemical purity (HPLC)” value ([2]; t=0 h) of the same molecule?
Its value is 99.7%.

What about the “chemical purity by UV trace at 280 nm (HPLC)” value ([2]; t=24h, kept at 2-8° C.) of the same molecule?
The value was 96.5%.

And the “radiochemical purity (HPLC)” value ([2]; t=24h, kept at 2-8° C.)?
Its value is 98.3%.

And the “radioconjugate bound to antigen (radio-chromatogram)” value [3]?
The value was 96.5%.

And the “% of intact ^134Ce-TOPA-1154” value ([4]; w/DTPA, 0 hr)?
Its value is 93.3%.

And the “% of intact ^134Ce-TOPA-1154” value ([4]; w/DTPA, 24 hr)?
Its value is 93.8%.

What about the “% of intact ^134Ce-TOPA-1154” value ([4]; w/DTPA, 96 hr) of the same molecule?
Its value is 94%.

What about the “% of intact ^134Ce-TOPA-1154” value ([4]; w/o DTPA, 0 hr) of the same molecule?
The value was 95%.

What about the “% of intact ^134Ce-TOPA-1154” value ([4]; w/o DTPA, 24 hr) of the same molecule?
Its value is 90 (*) %.

What about the “% of intact ^134Ce-TOPA-1154” value ([4]; w/o DTPA, 96 hr) of the same molecule?
The value was 98.5%.
